From publication PMC4336329 (PLoS ONE, 2015)
Among all 310,000 compounds or so, about 2,200 (0.71%) showed an effect of 50% or more. The effect is printed as a negative number. The list shows a part of the results.

The compounds below were run against human ether-à-go-go-related gene (hERG) potassium channel (human, UniProt Q12809) (assay: primary screen, population patch clamp on CHO cells stably expressing hERG).
Chain of human ether-à-go-go-related gene (hERG) potassium channel (Q12809 whole entry, looked up): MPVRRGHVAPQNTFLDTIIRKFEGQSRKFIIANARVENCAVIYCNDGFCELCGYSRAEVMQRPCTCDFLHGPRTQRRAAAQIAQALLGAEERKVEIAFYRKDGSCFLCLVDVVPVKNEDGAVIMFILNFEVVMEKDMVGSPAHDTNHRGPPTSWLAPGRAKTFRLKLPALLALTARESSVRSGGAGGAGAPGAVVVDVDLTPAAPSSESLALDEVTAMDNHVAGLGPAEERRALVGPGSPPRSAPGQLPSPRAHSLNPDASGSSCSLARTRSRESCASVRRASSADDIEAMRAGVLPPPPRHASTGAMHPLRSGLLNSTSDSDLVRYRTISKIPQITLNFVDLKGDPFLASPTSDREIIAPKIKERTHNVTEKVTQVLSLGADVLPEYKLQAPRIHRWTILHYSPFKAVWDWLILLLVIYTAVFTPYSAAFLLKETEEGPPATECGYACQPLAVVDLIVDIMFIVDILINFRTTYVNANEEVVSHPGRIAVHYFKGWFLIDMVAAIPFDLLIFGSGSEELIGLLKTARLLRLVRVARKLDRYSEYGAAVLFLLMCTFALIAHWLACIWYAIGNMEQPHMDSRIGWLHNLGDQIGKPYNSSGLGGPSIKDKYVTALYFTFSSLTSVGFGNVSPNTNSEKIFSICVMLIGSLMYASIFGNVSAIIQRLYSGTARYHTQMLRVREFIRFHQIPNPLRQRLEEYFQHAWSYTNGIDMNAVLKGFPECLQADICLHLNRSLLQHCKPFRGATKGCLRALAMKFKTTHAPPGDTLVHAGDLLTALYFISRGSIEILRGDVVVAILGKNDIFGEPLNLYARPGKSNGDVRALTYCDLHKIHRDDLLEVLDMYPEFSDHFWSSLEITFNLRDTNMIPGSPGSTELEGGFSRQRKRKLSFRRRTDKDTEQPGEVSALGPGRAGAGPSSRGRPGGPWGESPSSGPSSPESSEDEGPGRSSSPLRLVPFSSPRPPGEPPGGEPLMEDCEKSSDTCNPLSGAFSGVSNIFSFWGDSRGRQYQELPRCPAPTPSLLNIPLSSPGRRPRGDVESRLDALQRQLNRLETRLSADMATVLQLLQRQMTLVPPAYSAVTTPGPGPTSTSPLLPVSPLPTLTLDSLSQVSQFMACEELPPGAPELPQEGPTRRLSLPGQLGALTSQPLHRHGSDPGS

Row | Structure (SMILES) | hERG current change (%, negative = inhibition) at 1uM [%]
1 | COc1ccc(CN(C)C(=O)c2cc(-c3ccc(C)cc3C)nc3ccccc23)c(OC)c1OC | 14.7
2 | O=C(N=C1SC2CS(=O)(=O)CC2N1Cc1ccc(F)cc1)C1CC1 (centres unmarked) | 5.2
3 | COCCNC(=O)CN(C)S(=O)(=O)c1ccc2c(c1)OCCO2 | 11.9
4 | CCc1nnc(NC(=O)C2CCN(c3cnccn3)CC2)s1 | 5.04
5 | CC(C)OP(=O)(OC(C)C)C(O)c1ccc(N(C)C)cc1 (centres unmarked) | 14.7
6 | COCC(=O)Nc1nc(-c2ccccc2)c(C)s1 | -1.8
7 | O=C(c1cn(Cc2ccccc2)nc1-c1ccccc1)N1CCN(c2ccccn2)CC1 | 2.74
8 | CC(C)OS(C)(=O)=O | 10.2
9 | CCCn1nnnc1SCC(=O)NC1CCCC1 | 13.6
10 | CCOCCOC(=O)c1cccc(NC(=O)OCC)c1 | 9.02
11 | O=P(c1ccccc1)(c1ccccc1)c1cc(Br)cc(Br)c1OCCO | 2.13
12 | COc1ccccc1CNC1CCN(Cc2ccccc2)CC1 | 14.5
13 | O=S(=O)(/N=C(/Nc1ccccc1)C(F)(F)F)c1ccccc1 | 5.12
14 | CCCCc1cc(=O)oc2cc(OC(C)C(=O)NCCN3CCOCC3)c(Cl)cc12 (centres unmarked) | -8.35
15 | CC1CCCCN1C(=O)CNCC1CCCO1.O=C(O)C(=O)O (centres unmarked) | 16.2
16 | COc1ccc(S(=O)(=O)NC2CC(C)(C)NC(C)(C)C2)c2ccccc12 | 7.04
17 | Cc1ccc(-c2nnc(N3CCN(C(=O)CSc4ncn[nH]4)CC3)c3ccccc23)cc1 | -3.13
18 | CCc1ccc(Nc2cc(=O)n(C3CCCCC3)c(=O)[nH]2)cc1 | 19.2
19 | CC(NS(=O)(=O)c1ccccc1)C(=O)Nc1ccc2c(c1)OCCO2 (centres unmarked) | 11.6
20 | Cc1ccccc1NC(=O)/C(=C/c1cccs1)NC(=O)c1ccco1 | 9.33
21 | CCOC(=O)c1[nH]c2ccc(OC)cc2c1NC(=O)c1nonc1C | 7.85
22 | O=C(NC(=S)Nc1cccc(F)c1)c1cccc([N+](=O)[O-])c1 | 16

Row | Structure (SMILES) | hERG current change (%, negative = inhibition) at 1uM [%]
23 | CSc1nnc(Cn2c(=O)sc3ccccc32)n1C | 12.2
24 | Cc1ccc(-n2nc3c(c2NC(=O)C2CC2)CS(=O)(=O)C3)cc1 | -0.97
25 | OCC1(Cc2ccccc2)CCN(C2CCN(c3ccccc3F)CC2)CC1 | -38.5
26 | Cc1ccccc1-c1cnn(-c2cccc([N+](=O)[O-])c2)c1N | -4.48
27 | Cc1nc(C)c(C(=O)N(c2ccc(F)cc2)C(C(=O)NCC2CCCO2)c2ccccc2)s1 (centres unmarked) | 6.77
28 | Cc1nc(N)c(C#N)c(-c2ccccc2)c1C | 1.76
29 | CC(O)c1nc2c(c(=O)n(C)c(=O)n2C)n1C (centres unmarked) | 8.38
30 | O=C(NC1CCN(C(=S)NCc2ccco2)CC1)C12CC3CC(CC(C3)C1)C2 | 9.76
31 | CCN(CC)c1ccc(NC2CC(=O)N(CCc3ccc(OC)cc3)C2=O)cc1 (centres unmarked) | 6.82
32 | Cn1cccc1CC(=O)NNC(=O)Nc1ccc(Cl)cc1 | 5.13
33 | COC(=O)c1cc(S(=O)(=O)N2CCN(c3cccc(OC)c3)CC2)cn1C | 8.34
34 | O=C1N(Cc2cccnc2)C[C@@H]2C[C@@H](c3ccc(-c4ccccc4)cc3)N3CCC[C@@]123 | -39
35 | c1ccc(-c2cc3c(N4CCN(c5ccccc5)CC4)ncnc3s2)cc1 | 7.06
36 | CCOC(=O)C1CCN(C(=O)CCNS(=O)(=O)c2ccc(C)cc2)CC1 | 6.98
37 | CN(Cc1ccccc1)c1ncnc(N)c1[N+](=O)[O-] | 8.16
38 | C=CCn1c(-c2ccc(Cl)cc2)cnc1SC(C)C(N)=O (centres unmarked) | 7.51
39 | O=C(CSc1nc(O)c(C2CCCCC2)c(=O)[nH]1)Nc1ccc(Cl)cc1 | 10.1
40 | COC(=O)c1ccccc1C(=O)N1CCCC(CCC(=O)NCc2ccc(F)c(F)c2)C1 (centres unmarked) | 1.77
41 | CC(CC(=O)NC(C)c1ccc2c(c1)OCCO2)c1ccccc1 (centres unmarked) | 11.3
42 | CC1CCCCN1C(=O)Cn1cnc2c1c(=O)n(C)c(=O)n2C (centres unmarked) | 14.6
43 | CC(C)Cc1nn2c(=O)cc(O)nc2s1 | 10.2
44 | Fc1ccc(Nc2ccc3ccccc3n2)c(F)c1 | 10.8
